Results taken from patent publication US20220389066A1, “POLYPEPTIDES” (Affibody AB, priority 2019, published 2022).

Columns and labels:
[1] = target: T1, HMGB1(red) (Rattus norvegicus, UniProt P63159); test: In vitro cell migration assay, mouse 3T3 fibroblasts in modified Boyden chambers; assay type: cell-based; conditions: 1 nM or 0.2 nM HMGB1(red), 3 h
T1 construct: purchased HMGBiotech Srl, Milano, Italy
T1 sequence (P63159 2-215): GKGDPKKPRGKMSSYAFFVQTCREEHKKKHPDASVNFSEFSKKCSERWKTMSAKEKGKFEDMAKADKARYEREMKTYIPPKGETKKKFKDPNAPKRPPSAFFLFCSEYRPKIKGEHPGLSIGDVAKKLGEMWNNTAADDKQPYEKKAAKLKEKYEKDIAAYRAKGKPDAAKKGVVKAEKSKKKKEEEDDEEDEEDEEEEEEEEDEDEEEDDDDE
Description: In vitro cell migration assay: Mouse 3T3 fibroblast cells were used to assess the ability of His6-tagged Z variants to inhibit migration of cells in response to HMGB1 in modified Boyden Chambers (Neuroprobe Inc.). Mouse 3T3 fibroblasts were grown in Dulbecco's Modified Eagle Medium (DMEM, Gibco) with 10% fetal bovine serum (FBS, Gibco), 1% L-glutamine and antibiotics (Lonza). Prior to use, cells were centrifuged and the pellet was resuspended in DMEM (without FBS) without further washing. Polycarbonate filters (Neuroprobe Inc.; #PFA8) with 8 μm pores were coated with human fibronectin (Roche). Serum-free DMEM (negative control), DMEM containing 1 nM HMGB1(red) (positive control), and DMEM containing 1 nM HMGB1(red) plus Z variants ZH 01 (SEQ ID NO:1) and ZH 31 (SEQ ID NO:31) at a concentration of 10 or 100 ng/ml, were placed in the lower wells. A control polypeptide, Z04726 (SEQ ID NO:54), binding an irrelevant target, was used as negative control. boxA(red) (SEQ ID NO:51), a known competitor of HMGB1, was used at 1 nM concentration as positive control for inhibition of HMGB1 induced cell migration. Fibronectin-coated filters were placed so as to separate the lower and the upper wells, and 50000 3T3 cells were placed in the upper wells. The chambers were kept at 37° C. in a 5% CO2, humidified incubator for 3 h. The cells were then fixed with 100% ethanol (Sigma) and stained 20 minutes with Giemsa Stain (Sigma). The cells on the lower side of the filter were counted with a Leica DM LS2 microscope at 400× magnification.
ZH 30 was tested in a migration assay by performing an extended titration to allow IC50 calculations with 0.2 nM HMGB1(red) and lower concentrations of Z variants (0.1 ng/ml, 0.3 ng/ml, 1 ng/ml). A control polypeptide, ZZA4014 (SEQ ID NO:49), binding an irrelevant target and cloned and produced as described in Example 4, was used as negative control in this set up.
In vitro cell migration assay: The migration assay was performed essentially as described for monomeric Z variants in Example 3. One monomeric Z-ABD polypeptide, ZA3812 (SEQ ID NO:35); five heterodimeric polypeptides, ZZA4010 (SEQ ID NO:38), ZZA4011 (SEQ ID NO:39), ZZA4012 (SEQ ID NO:40), ZZA4013 (SEQ ID NO:41) and ZAZ4015 (SEQ ID NO:42); and three homodimeric polypeptides, ZZA4053 (SEQ ID NO:43), ZZA4054 (SEQ ID NO:44) and AZ4057 (SEQ ID NO:45), were tested in a migration assay by performing an extended titration, to allow IC50 calculations with 0.2 nM HMGB1 and reducing doses of polypeptides (0.1 nM, 0.3 nM, 1 nM). ZZA4014 (SEQ ID NO:49), binding an irrelevant target, was included as a negative control.

[2] = target: T2, GST-boxA(red) (Homo sapiens, UniProt P09429); test: Biacore binding analysis of mutated Z variants, immobilized GST-boxA(red); conditions: His6-tagged Z variant as analyte; HBS-EP + 2 mM DTT; 1:1 model
T2 construct: purchased HMGBiotech Srl, Milano, Italy
Description: (§1) Binding analysis of mutated Z variants: A binding analysis was performed using a Biacore 2000 instrument. All alanine mutated Z variants, together with the original Z variant ZH 01, were analyzed against GST-boxA(red), HMGB1(red), boxA(disulfide) and HMGB1(disulfide). The immobilizations and Biacore analyses were performed essentially as described in Example 3. However, in these analyses, the different targets were directly coupled to separate flow cells of different CM5 chip surfaces and a flow rate of 30 μl/min was used. The ligand immobilization levels on the surfaces were 1410 RU for GST-boxA(red), 1380 RU for HMGB1(red), 540 RU for boxA(disulfide) and 2900 RU for HMGB1(disulfide). The analytes, i.e. the Z variants, were each diluted in HBS-EP buffer (or in HBS-EP+2 mM DTT for use in analysis with reduced targets GST-boxA(red) and HMGB1(red)), within a concentration range of 50 to 1350 nM and injected for 3 min, followed by dissociation in running buffer for 35 min. No regeneration buffer was used in the analyses. Instead, the dissociation time was enough for all binders to dissociate from the chip surfaces. HBS-EP was used as running buffer for targets boxA(disulfide) and HMGB1(disulfide) while HBS-EP+2 mM DTT was used for reduced targets GST-boxA(red) and HMGB1(red). The dissociation constants were calculated as in Example 3.

[3] = target: T3, HMGB1(disulfide) (Rattus norvegicus, UniProt P63159); test: Biacore binding analysis of mutated Z variants, immobilized HMGB1(disulfide); conditions: His6-tagged Z variant as analyte; HBS-EP; 1:1 model
T3 construct: purchased HMGBiotech Srl, Milano, Italy
T3 sequence (P63159 1-215): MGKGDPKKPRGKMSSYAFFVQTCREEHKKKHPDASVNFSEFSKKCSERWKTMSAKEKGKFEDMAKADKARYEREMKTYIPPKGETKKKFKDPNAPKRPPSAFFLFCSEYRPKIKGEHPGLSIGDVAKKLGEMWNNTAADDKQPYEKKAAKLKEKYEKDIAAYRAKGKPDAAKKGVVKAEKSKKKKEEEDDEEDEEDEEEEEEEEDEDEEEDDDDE
Description: as §1

[4] = target: T4, boxA(disulfide) (Homo sapiens, UniProt P09429); test: Biacore binding analysis of mutated Z variants, immobilized boxA(disulfide); conditions: His6-tagged Z variant as analyte; HBS-EP; 1:1 model
T4 construct: purchased HMGBiotech Srl, Milano, Italy
T4 sequence (P09429 1-89): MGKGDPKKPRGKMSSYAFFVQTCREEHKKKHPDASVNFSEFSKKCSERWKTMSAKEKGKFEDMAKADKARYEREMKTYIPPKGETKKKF
Description: as §1

[5] = target: T5, HMGB1(red) (Rattus norvegicus, UniProt P63159); test: Biacore binding analysis of mutated Z variants, immobilized HMGB1(red); conditions: His6-tagged Z variant as analyte; HBS-EP + 2 mM DTT; 1:1 model
T5 construct: purchased HMGBiotech Srl, Milano, Italy
T5 sequence (P63159 1-215): T3 sequence (P63159 1-215)
Description: as §1

[6] = Circular dichroism (CD) spectroscopy, variable temperature measurement; assay type: physicochemical; conditions: His6-tagged Z variants; CD at 221 nm, 20 to 80-90° C.
Description: Circular dichroism (CD) spectroscopy analysis: The His6-Z variants produced in Example 2 were diluted to 25 μM in PBS or H2O. A CD spectrum at 250-195 nm was obtained at 20° C. In addition, a variable temperature measurement (VTM) was performed to determine the melting temperature (Tm). In the VTM, absorbance was measured at 221 nm while the temperature was raised from 20° C. to 80° C. (in some cases to 90° C.), with a temperature slope of 5° C./min. A new CD spectrum was obtained at 20° C. after the heating procedure, in order to study the refolding ability of the Z variants. The CD measurements were performed on a Jasco J-810 spectropolarimeter (Jasco Scandinavia AB) using a cell with an optical path length of 1 mm.
Circular dichroism (CD) spectroscopy analysis: The measurements were performed essentially as described in Example 3.

T2 sequence (P09429 with tags, fused parts or gaps): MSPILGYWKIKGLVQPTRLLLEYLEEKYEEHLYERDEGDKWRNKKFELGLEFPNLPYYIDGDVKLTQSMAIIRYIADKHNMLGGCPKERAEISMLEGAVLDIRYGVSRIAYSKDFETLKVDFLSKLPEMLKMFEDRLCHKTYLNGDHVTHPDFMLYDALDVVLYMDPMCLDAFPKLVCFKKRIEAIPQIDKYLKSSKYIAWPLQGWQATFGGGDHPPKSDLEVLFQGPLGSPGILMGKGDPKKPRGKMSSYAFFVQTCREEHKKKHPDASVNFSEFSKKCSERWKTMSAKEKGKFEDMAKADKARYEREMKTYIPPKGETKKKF

Substance | inhibition of HMGB1 induced cell migration [1] | Kd [2] [nM] | Kd [3] [nM] | Kd [4] [nM] | Kd [5] [nM] | Tm (° C.) [6] [°C]
Z04726: control polypeptide binding an irrelevant target, used as negative control (VDAKYAKELGWATWEIFNLPNLTGVQVKAFIDKLRDDPSQSSELLSEAKKLNDSQAPK; Engineered negative control polypeptide) [reference compound] | no inhibition |  |  |  |  | 
ZH14: single-point mutation variant of ZH 01, D9A (VDAKYAKEAWDAFWEIIWLPNLTDAQQRAFIYKLEDDPSQSSELLSEAKKLNDSQAPK; Engineered HMGB1 binding polypeptide) |  | 36 | 150 | 770 | 18 | 59
ZH15: single-point mutation variant of ZH 01, W10A (VDAKYAKEDADAFWEIIWLPNLTDAQQRAFIYKLEDDPSQSSELLSEAKKLNDSQAPK; Engineered HMGB1 binding polypeptide) |  |  | 12000 |  | 570 | 44
ZH16: single-point mutation variant of ZH 01, D11A (VDAKYAKEDWAAFWEIIWLPNLTDAQQRAFIYKLEDDPSQSSELLSEAKKLNDSQAPK; Engineered HMGB1 binding polypeptide) |  | 21 | 130 | 660 | 10 | 50
ZH17: single-point mutation variant of ZH 01, F13A (VDAKYAKEDWDAAWEIIWLPNLTDAQQRAFIYKLEDDPSQSSELLSEAKKLNDSQAPK; Engineered HMGB1 binding polypeptide) |  |  | 6800 |  |  | 43
ZH18: single-point mutation variant of ZH 01, W14A (VDAKYAKEDWDAFAEIIWLPNLTDAQQRAFIYKLEDDPSQSSELLSEAKKLNDSQAPK; Engineered HMGB1 binding polypeptide) |  | 370 | 2200 |  | 290 | 41
ZH19: single-point mutation variant of ZH 01, I17A (VDAKYAKEDWDAFWEIAWLPNLTDAQQRAFIYKLEDDPSQSSELLSEAKKLNDSQAPK; Engineered HMGB1 binding polypeptide) |  |  | 3100 |  |  | 42
ZH20: single-point mutation variant of ZH 01, W18A (VDAKYAKEDWDAFWEIIALPNLTDAQQRAFIYKLEDDPSQSSELLSEAKKLNDSQAPK; Engineered HMGB1 binding polypeptide) |  | 130 | 1500 | 50000 | 90 | 55
ZH21: single-point mutation variant of ZH 01, D24A (VDAKYAKEDWDAFWEIIWLPNLTAAQQRAFIYKLEDDPSQSSELLSEAKKLNDSQAPK; Engineered HMGB1 binding polypeptide) |  | 110 | 670 | 1500 | 64 | 53
ZH22: single-point mutation variant of ZH 01, A25S (VDAKYAKEDWDAFWEIIWLPNLTDSQQRAFIYKLEDDPSQSSELLSEAKKLNDSQAPK; Engineered HMGB1 binding polypeptide) |  | 17 | 190 | 330 | 9 | 46
ZH23: single-point mutation variant of ZH 01, Q27A (VDAKYAKEDWDAFWEIIWLPNLTDAQARAFIYKLEDDPSQSSELLSEAKKLNDSQAPK; Engineered HMGB1 binding polypeptide) |  | 67 | 870 | 790 | 41 | 47
ZH24: single-point mutation variant of ZH 01, R28A (VDAKYAKEDWDAFWEIIWLPNLTDAQQAAFIYKLEDDPSQSSELLSEAKKLNDSQAPK; Engineered HMGB1 binding polypeptide) |  |  | 7800 |  | 680 | 47
ZH25: single-point mutation variant of ZH 01, Y32A (VDAKYAKEDWDAFWEIIWLPNLTDAQQRAFIAKLEDDPSQSSELLSEAKKLNDSQAPK; Engineered HMGB1 binding polypeptide) |  |  | 7800 |  |  | 56
ZH26: single-point mutation variant of ZH 01, E35A (VDAKYAKEDWDAFWEIIWLPNLTDAQQRAFIYKLADDPSQSSELLSEAKKLNDSQAPK; Engineered HMGB1 binding polypeptide) |  | 220 | 2400 |  | 110 | 56
